# In all, about 33,000 sequences were measured (“E-score (-0.5 to 0.5)”: median about -0.053, highest 2% from about 0.37 on). Some of the results follow.
# Biological target: Hap1 (UniProt P0CE41)
# Assay: PBM E-score (8-mer binding enrichment) (E-score (-0.5 to 0.5)); higher = stronger / more preferred TF binding; most listed sequences are background and not binding sites
# Settings: protein concentration: 200 nM; construct: GST-DNA-binding domain
# Experimental: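 Universal 'all 10-mer' protein binding microarrays (Agilent AMADID 015681) probed with GST-tagged S. cerevisiae TFs (full-length or DBD) made by in vitro transcription/translation (PURExpress), about 100-200 nM. Bound TF was detected with fluorescent anti-GST. Each ungapped 8-mer (which stands for itself and its reverse complement) is scored by the PBM enrichment score (E-score), a modified Wilcoxon-Mann-Whitney statistic from -0.5 to +0.5, computed with the Universal PBM Analysis Suite. Scale: above 0.35 generally sequence-specific binding.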
# UniProt P0CE41, sequence (P0CE41 whole entry): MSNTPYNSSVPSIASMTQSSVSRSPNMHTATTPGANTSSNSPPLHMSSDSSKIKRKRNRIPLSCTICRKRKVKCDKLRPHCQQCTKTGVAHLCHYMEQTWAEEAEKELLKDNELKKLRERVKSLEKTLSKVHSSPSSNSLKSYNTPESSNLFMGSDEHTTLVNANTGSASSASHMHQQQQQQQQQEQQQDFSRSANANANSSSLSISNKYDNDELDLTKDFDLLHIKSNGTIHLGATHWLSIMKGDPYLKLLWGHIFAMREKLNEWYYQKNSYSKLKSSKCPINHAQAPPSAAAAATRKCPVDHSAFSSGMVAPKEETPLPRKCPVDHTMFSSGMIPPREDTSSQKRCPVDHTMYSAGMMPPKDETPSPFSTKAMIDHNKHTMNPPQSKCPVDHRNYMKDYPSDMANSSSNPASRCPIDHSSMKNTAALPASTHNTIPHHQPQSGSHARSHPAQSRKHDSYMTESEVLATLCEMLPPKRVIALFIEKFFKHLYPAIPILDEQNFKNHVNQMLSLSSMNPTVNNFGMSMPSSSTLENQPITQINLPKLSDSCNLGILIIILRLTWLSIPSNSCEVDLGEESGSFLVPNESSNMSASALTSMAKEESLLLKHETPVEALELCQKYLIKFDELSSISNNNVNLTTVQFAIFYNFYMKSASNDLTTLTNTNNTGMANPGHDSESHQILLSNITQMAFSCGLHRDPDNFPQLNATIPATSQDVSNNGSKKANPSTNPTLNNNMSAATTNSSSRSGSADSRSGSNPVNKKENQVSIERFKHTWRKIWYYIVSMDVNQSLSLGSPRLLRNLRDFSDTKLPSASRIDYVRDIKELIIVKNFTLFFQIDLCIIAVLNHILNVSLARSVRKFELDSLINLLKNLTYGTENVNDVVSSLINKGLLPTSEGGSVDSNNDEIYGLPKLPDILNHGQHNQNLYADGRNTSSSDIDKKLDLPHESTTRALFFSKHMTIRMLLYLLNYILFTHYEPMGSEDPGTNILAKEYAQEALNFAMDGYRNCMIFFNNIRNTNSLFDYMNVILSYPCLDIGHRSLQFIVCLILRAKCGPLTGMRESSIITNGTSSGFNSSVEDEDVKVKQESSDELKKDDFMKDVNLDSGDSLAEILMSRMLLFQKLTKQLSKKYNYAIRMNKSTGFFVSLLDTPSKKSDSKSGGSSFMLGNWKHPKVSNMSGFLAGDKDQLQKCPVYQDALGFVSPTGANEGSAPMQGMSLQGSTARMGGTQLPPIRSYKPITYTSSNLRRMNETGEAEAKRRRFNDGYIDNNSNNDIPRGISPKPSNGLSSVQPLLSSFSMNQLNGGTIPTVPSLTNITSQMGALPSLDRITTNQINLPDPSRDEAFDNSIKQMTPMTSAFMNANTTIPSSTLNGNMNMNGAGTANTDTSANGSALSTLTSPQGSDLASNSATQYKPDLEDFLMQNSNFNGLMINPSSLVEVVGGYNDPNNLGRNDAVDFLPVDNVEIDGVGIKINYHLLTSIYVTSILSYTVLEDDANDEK
row,Sequence,PBM E-score
1,ACTCGTAC,-0.00354
2,GGCTAACA,0.0243
3,ATACCGAC,0.0107
4,CCAACTGG,-0.22
5,ATTAACTA,-0.0777
6,ATATACCA,-0.185
7,ATTAATGG,0.137
8,GCTGAGTA,-0.104
9,CTAAAAGA,-0.173
10,AATAACGC,0.0403
11,TATATTGA,0.0255
12,ACAACATC,-0.0307
13,ATCCGATC,0.326
14,GCTTATCA,-0.0723
15,AGTCTATC,-0.204
16,CCCTTAAG,0.13
17,GGTGAACC,0.055
18,CTCGTGGC,-0.0819
19,CCCCGATA,0.44
20,CCTAAGTA,-0.0982
21,AACGGCCT,0.074
22,CCGGTGTA,0.355
23,AGTTAGAA,0.0832
24,CACACTTA,-0.072
25,GCAACGTA,-0.306

row,Sequence,PBM E-score
1,GAGGAGTA,-0.0244
2,AGTGGCTG,0.139
3,AGGCCTGA,-0.188
4,ATCGAATG,-0.076
5,CTATGTAA,-0.19
6,CGATCCAA,-0.0472
7,AGCACTAT,-0.257
8,ATGTTGTA,-0.147
9,AGCTGCTG,-0.123
10,CCGTCAGA,-0.0467
11,CCGCCGGC,0.373
12,CTTTCCCC,0.148
13,ACTGAAAC,0.0255
14,ACACAAAA,-0.142
15,CGTCTATA,-0.144
16,ACAGTAGT,-0.192
17,GCGTAGAA,0.0917
18,CACGACCC,-0.0457
19,ACTGTGTG,0.0083
20,AACCTAGT,0.0258
21,ATTTTTAC,-0.182
22,CTAAACGA,-0.00032
23,CTTCTCGA,-0.232
24,GGAAAGGA,0.225
25,AAGTGTGT,-0.26

row,Sequence,PBM E-score
1,GACCTAAC,0.08
2,AACGCCGG,0.397
3,ATGCCCAA,-0.101
4,ACGCGATC,0.0777
5,AGTCTGAT,-0.241
6,CGAGGACA,0.126
7,GAGACACC,0.106
8,GCCGATGA,0.373
9,GGCTTCAC,0.0174
10,CATATAGA,-0.101
11,ATCTGGTG,-0.136
12,ACGAAAGC,-0.0708
13,ATGAACCG,0.162
14,CCCCGAAA,0.348
15,ACCTTAAG,0.00463
16,AATCGTCG,0.122
17,TAATCACA,-0.201
18,ACCGGTGG,0.209
19,CCACAGAC,-0.313
20,GGACTCAC,0.0658
21,CGACCCCC,-0.0393
22,GAGGTCAC,0.0181
23,CCGTCGAC,0.0572
24,GCTGATAC,-0.111
25,CCCCAGGA,-0.26

row,Sequence,PBM E-score
1,AATGACCG,0.331
2,AATGCGCG,0.277
3,GTGGTAGA,-0.121
4,CTCGCGCA,0.148
5,ACACGCCT,-0.258
6,ATCTGCTA,-0.213
7,ACGTTGAC,-0.116
8,CAAGGCGG,-0.17
9,AGAAGCTA,0.0834
10,ATACCCAA,-0.046
11,AATGGCAC,-0.0745
12,GTCCCCAA,-0.0556
13,GCAGGTAA,0.0582
14,TATCAAGA,-0.228
15,AACGCTTG,-0.0274
16,ACCTGATC,-0.109
17,AAACCCTC,0.0772
18,TGTATAAA,-0.264
19,ACAGAACC,-0.201
20,TACTATAA,-0.131
21,CAGCAACC,-0.206
22,AACGATGA,-0.0573
23,ACCCATAT,-0.235
24,GTTTACGA,-0.236
25,ACTCGGAG,0.305

row,Sequence,PBM E-score
1,CAGGCGCG,-0.124
2,CCGCTCCG,0.327
3,CGAGAGCG,0.13
4,ACATTTAA,-0.0555
5,ATGTACGC,-0.161
6,GCCCGCAC,0.142
7,ACGATATG,0.0819
8,GCACGGTA,-0.0221
9,CTGACTCC,-0.0262
10,CTCTTAAC,-0.0311
11,ACGAGAAC,-0.0617
12,GCACTTCC,-0.0201
13,ATTCCCAC,-0.163
14,AATGAGGC,-0.127
15,GCAATCAC,0.204
16,TAGGCAAA,-0.184
17,AAAGGCGG,0.0401
18,AATAGGTC,-0.00292
19,ACCGATTA,0.335
20,GAACAGGC,-0.103
21,CCTCCGAA,0.334
22,AATAGCGA,0.0245
23,GCCCGGAC,0.401
24,AAACCACT,-0.163
25,CTGATTGA,-0.212

row,Sequence,PBM E-score
1,ACTCGCTA,0.12
2,AATACCTG,-0.103
3,ATTGCACA,-0.243
4,CGCACGAC,0.065
5,CGGGGAGC,0.255
6,GAGAAGTA,-0.0211
7,CGTCACAG,-0.122
8,AGTGTGAT,-0.321
9,ACGCACAC,0.0161
10,ATAAGCGA,0.21
11,AATGAGAA,-0.0939
12,CCTGTACC,-0.0649
13,CCGACAAC,0.254
14,ACCCACCT,-0.133
15,AGTCGAAT,-0.0799
16,AGGTGGGC,-0.146
17,AACCGTTC,0.193
18,CCTGTCAC,-0.178
19,TATAACAA,-0.028
20,ATTTCGTC,0.0285
21,CCCGAGGG,0.298
22,GTGAAGTA,-0.065
23,ACTGATCG,-0.15
24,GCCTGGGA,-0.0736
25,AAACTACA,0.0695

row,Sequence,PBM E-score
1,CATCGAAC,-0.0236
2,ACGGCAGA,0.108
3,ATCATGTG,-0.197
4,AACTTAGT,-0.0304
5,ATAATGCG,0.0367
6,GGCTCCCC,0.064
7,CGGGATAC,0.174
8,AGTTCCTA,-0.091
9,CTCCCAGA,-0.279
10,GCCATGGC,-0.107
11,ACAGAAGC,-0.147
12,AGCACCCA,0.00868
13,GAGGGGGA,-0.204
14,ATACGAAC,-0.0356
15,ATTTGATA,-0.103
16,AGCATACT,-0.138
17,AGATCTAG,-0.19
18,CCATACTA,-0.0774
19,CTCGTACC,-0.0597
20,ACGTAAGG,-0.225
21,GCCTCGAC,-0.316
22,ATACACCA,-0.0557

# Source: the supplement of paper PMC3334620
